Reference: PubChem BioAssay (NCI)
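Dose response: 5 concentrations. Exposure: 48 h. Format: 96-well plates. Endpoint: linear interpolation; highest concentration if not reached. GI50 is the concentration that inhibits growth by half.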 A number of entries come with more than one value. The list is limited to them. An entry can have further records. Records of one sample usually come from different ranges of test concentrations, not given here; a value can be the end of its range.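 The concentration for full growth arrest is given as TGI.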

Legend:
Test in all cases: NCI anticancer screen, dose series, 48 h
[1] = test system: SNB-75 CNS
[2] = test system: A498 renal
[3] = test system: T-47D breast
[4] = test system: HCT-116 colon
[5] = test system: LOX IMVI melanoma
[6] = test system: SK-MEL-2 melanoma
[7] = test system: MALME-3M melanoma
[8] = test system: SW-620 colon
[9] = test system: CCRF-CEM leukemia
[10] = test system: M14 melanoma
[11] = test system: SF-295 CNS
[12] = test system: HOP-62 NSCLC
[13] = test system: HT29 colon
[14] = test system: NCI-H226 lung
[15] = test system: OVCAR-8 ovarian
[16] = test system: SNB-19 CNS
[17] = test system: 786-0 renal
[18] = test system: MDA-MB-435
[19] = test system: SK-MEL-5 melanoma
[20] = test system: RXF 393 renal
[21] = test system: KM20L2 colon
[22] = test system: SF-268 CNS
[23] = test system: HS 578T breast
[24] = test system: ACHN renal
[25] = test system: HCT-15 colon
[26] = test system: MDA-MB-231 breast
[27] = test system: K-562 leukemia
[28] = test system: RPMI-8226 leukemia

For CC(=O)O[C@H]1C(=O)[C@@]2(C)[C@H]([C@H](OC(=O)c3ccccc3)[C@]3(O)C[C@H](OC(=O)[C@H](O)[C@@H](NC(=O)c4ccccc4)c4ccccc4)C(C)=C1C3(C)C)[C@]1(OC(C)=O)CO[C@@H]1C[C@@H]2O, the TGI [1] was 11 nM [1 test] and 98.2 nM [mean of 15 tests] and 240 nM, 700 nM [mean of 2 tests] and 95.9 nM [mean of 20 tests] and 225 nM [mean of 4 tests], the TGI [2] was 724 nM, 611 nM, 16.4 µM, 60 µM, 23.1 µM and the TGI [3] was 88.9 µM [1 test] and 909 nM [mean of 15 tests] and 25 µM [mean of 17 tests] and 616 nM [mean of 2 tests] and 60.8 µM [mean of 8 tests]. For the same compound, the TGI [4] was 704 nM, 127 nM, 606 nM, 18.4 µM, 15.1 µM, 33.3 µM, the TGI [5] was 787 nM, 14.3 µM, 21.7 µM, 22.4 µM and the TGI [6] was 2.59 nM [1 test] and 394 nM, 9.02 µM [mean of 14 tests] and 681 nM [mean of 2 tests]. For the same compound, the TGI [7] was 912 nM, 3.98 µM, 6.12 µM, 64.2 µM, the TGI [8] was 748 nM, 22.7 µM, > 69 µM, > 100 µM and the TGI [9] was 589 nM, 242 nM, 9.35 µM, > 100 µM, 7.08 µM. For the same compound, the TGI [10] was 371 nM, 121 nM, 25 µM, 15.4 µM, 41.8 µM, the TGI [11] was 230 nM [1 test] and 353 nM [mean of 15 tests] and 802 nM [mean of 18 tests] and 537 nM [mean of 2 tests] and 4.3 µM [mean of 8 tests] and the TGI [12] was 47.7 nM [1 test] and 751 nM [mean of 16 tests] and 13.5 µM [mean of 2 tests] and 5.37 µM [mean of 21 tests] and 43.5 µM [mean of 8 tests]. For the same compound, the TGI [13] was 167 nM, 55.4 nM, 749 nM, 527 nM, 12.9 µM, 30.8 µM, the TGI [14] was 25.4 µM [1 test] and 642 nM [mean of 16 tests] and 7.19 µM [mean of 18 tests] and 545 nM [mean of 2 tests] and 16.6 µM [mean of 6 tests] and the TGI [15] was > 100 µM [1 test] and 542 nM [mean of 18 tests] and 182 nM, 4.45 µM [mean of 2 tests] and 21.7 µM [mean of 23 tests] and 42.7 µM [mean of 6 tests]. The TGI [16] was 785 nM, 851 nM, 22.1 µM, > 100 µM, > 82.8 µM, the TGI [17] was 873 nM, 802 nM, 1.89 µM, 22.3 µM, > 100 µM, 48.8 µM and the TGI [18] was 37.1 nM, > 100 µM [1 test] and 16.8 nM [mean of 16 tests] and 53.8 nM [mean of 3 tests]. The TGI [19] was 596 nM, 978 nM, 863 nM, 9.38 µM, 21.6 µM, the TGI [20] was 465 nM, 440 nM, 74.3 nM, 821 nM, 12.7 µM, 933 nM and the GI50 [21] was 0.104 nM [1 test] and 3.41 nM [mean of 3 tests]. The TGI [21] was 3.48 nM [1 test] and 116 nM [mean of 3 tests], the TGI [22] was 952 nM, 778 nM, 24.2 µM, 59.9 µM and the TGI [23] was 6.84 nM [1 test] and 79.6 nM [mean of 17 tests] and 83.5 nM [mean of 20 tests] and 422 nM [mean of 7 tests]. For the same compound, the TGI [24] was 4.27 µM [mean of 2 tests] and 15.7 µM [mean of 20 tests] and 47.8 µM [mean of 7 tests], the TGI [25] was 1.17 µM, > 62.1 µM [mean of 2 tests] and 17 µM [mean of 27 tests] and 57.6 µM [mean of 8 tests] and the TGI [26] was 697 nM, 775 nM, 8.19 µM, 14.5 µM, 30.4 µM. The TGI [27] was 10.4 nM [1 test] and 543 nM [mean of 16 tests] and > 100 µM [mean of 2 tests] and 14.2 µM [mean of 26 tests] and 57.6 µM [mean of 7 tests] and the TGI [28] was 499 nM, 111 nM, 2.02 µM, > 100 µM, 10.9 µM.
